From PubChem BioAssay AID1508624 (National Center for Advancing Translational Sciences (NCATS), 2021)
Hit rate of the full screen: of about 48,000 compounds, about 120 (0.25%) were called active. About 4% were inconclusive and are not listed. The call rests on the fitted dose curve; in most records, active means well fitted activation curve with a large enough effect; inconclusive means small, poorly fitted or top-dose-only effect, or another doubt; inactive means no such curve, though single readings can be large or run the other way. This is one part of the list.

Assay: Primary qHTS for Identification of Small Molecule Activators of Huntingtin-Antisense Promoter Activity; further: nearly all actives have a fitted effect of over 55% in size
Conditions: HEK293 HTT-AS promoter firefly luciferase reporter, 24 h; series mostly up to 57.5 µM; activity change, positive = activation: at the top concentration
Method in brief: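 Firefly luciferase signal from promoter-reporter HEK293 cells was scaled between vehicle (0%) and zero RLU (-100%). Compounds were tested at final concentrations of up to 57.5 uM over 24 h at 37 degrees C. PTC124 at 50 uM final served as control inhibitor.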

Activity change, positive = activation, inactive:
CCCc1cc(N2CCN(c3cc(Cl)ccc3C)CC2)n2cnnc2n1 -23.5%
COc1ccc(CNC(=O)Cn2nc(C)c3nn(-c4ccc(Cl)cc4)c(C)c3c2=O)cc1 -21.2%
O=C(NCc1ccccc1Br)c1ccc2nc(N3CCCCC3)sc2c1 19.4%
CCCCN(CCCC)C(=O)CN(C)S(=O)(=O)c1ccc2c(c1)c(=O)n(C)c(=O)n2C -25.7%
CC(Nc1ccc(-c2nc(-c3ccncc3)no2)cc1[N+](=O)[O-])c1ccccc1 (stereo not drawn) -6.55%
Cc1sc2c(c1C)c(=O)n(CCc1ccccc1)c(=O)n2Cc1cccc(F)c1 -9.99%
Cc1ccc(-n2c(=O)c3c(c4cc(C)ccc4n3C)n(CC(=O)NCc3ccccc3Cl)c2=O)cc1 -8.05%
O=C(Nc1cc(F)ccc1F)C1CCN(c2nc3ccccc3n3cccc23)CC1 -9.72%
CCOC(=O)c1ccc(CN(Cc2ccccc2)S(=O)(=O)c2ccc(C)cc2)cc1 -26.5%
COc1ccc(CCC(=O)NC2CC(=O)N(c3ccc(C)cc3)C2)cc1 (stereo not drawn) -6.27%
CCCCNC(=O)C(CC)Sc1nnc(-c2cccc(F)c2)c(-c2cccc(F)c2)n1 (stereo not drawn) -3.77%
COc1ccc2oc(=O)cc(CN3CCN(c4ccc(F)cc4)CC3)c2c1 -33.7%
CCCCOC(=O)c1ccc(Nc2ncnc3[nH]ncc23)cc1 5.77%
Cc1cc(C)cc(N2CC(c3nc(-c4ccccc4C)no3)CC2=O)c1 (stereo not drawn) -13%
CC(=O)Nc1c(C)nn(-c2ccccc2)c1N1CCC(C(=O)NCc2ccc(Cl)cc2)CC1 16.6%
Cc1cccc(NC(=O)Cn2c(=O)n(-c3ccccc3Cl)c(=O)c3c(C)c(C(=O)N(C)C)sc32)c1 -1.07%
CCOC(=O)c1ccc(NC(=O)CN(c2ccc(C)cc2)S(=O)(=O)c2c(C)noc2C)cc1 -29%
Cc1nc2c(C(=O)NCCc3ccc(Cl)cc3)cnn2c(C)c1Cc1c(F)cccc1Cl -2.95%
CCOc1ccccc1NC(=O)C(Cc1ccccc1)NS(=O)(=O)c1ccc2c(c1)oc(=O)n2C (stereo not drawn) -20.2%
O=C(CN1C=NS(=O)(=O)c2ccccc21)Nc1ccc(F)cc1 -3.04%
O=C(NCc1cccs1)c1ccc2c(c1)N(Cc1ccccc1Cl)C(=O)c1ccccc1S2 -24.8%
COc1ccc(-c2cc3nc(C)c(CCC(=O)N4CCN(c5cccc(Cl)c5)CC4)c(C)n3n2)c(OC)c1 -45.3%
Cc1ccccc1-c1ncnn1-c1sc2c(c1C#N)CCCCC2 10.8%
COc1ccc(-c2cc(C(=O)OCC(=O)c3ccc(C)cc3)c3cccc(Cl)c3n2)cc1 7.14%
C[C@]12CC[C@@H]3c4ccc(O)cc4CC[C@H]3[C@H]1[C@@H](O)[C@@H](O)[C@H]2O 8.76%
CC(C)Cn1c(=O)c2ccccc2n2c(CCC(=O)NCc3ccccc3Cl)nnc12 -1.41%
CC(=O)NCCNC(=O)CCCc1nnc2n(C)c(=O)c3sccc3n12 -4.52%
O=C(CN1CCNCC1)NC1CCCCC1 -12.6%
COc1ccc(CNC(=O)c2cc3cc(C)ccc3n2C)cc1 -18.2%
Cc1nn(Cc2noc(C(=O)NCc3ccc(F)cc3)n2)c(C)c1Br -14.1%
O=C(NCCc1ccccc1)c1ccc2c(c1)N(Cc1ccccc1Cl)C(=O)c1ccccc1S2 -4.4%
COc1ccc(-c2nc3scc(CCNS(=O)(=O)c4ccc(F)cc4F)n3n2)cc1OC -27.6%
CC(C)NC(=O)Nc1ccc2c(c1)N(C)C(=O)c1ccccc1S2 -4.1%
COc1ccccc1CNC(=O)C(Cc1ccccc1)NS(=O)(=O)c1ccc2c(c1)oc(=O)n2C (stereo not drawn) -23.7%
CCOC(=O)c1cccc(NC(=O)CSc2ncc3c(n2)-c2ccccc2N(C)S3(=O)=O)c1 16.3%
CCOc1ccc(CC(=O)Nc2ccc3nc(N4CCCCC4)cc(C)c3c2)cc1OCC -18%
O=C1CC(c2nc3ccccc3n2CCCCOc2ccccc2)CN1c1ccccc1Cl (stereo not drawn) -53.1%
CCc1nnc(NC(=O)CSc2nc3c([nH]c4ccccc43)c(=O)n2-c2cc(C)cc(C)c2)s1 26.9%
Cc1ccccc1CNC(=O)C(C)n1nc(C)n2c(cc3occc32)c1=O (stereo not drawn) -14.5%
COc1ccc(CC(=O)Nc2nc3c(s2)CC(C(C)(C)C)CC3)cc1 (stereo not drawn) 4.69%
COc1ccc(NC(=O)C2=CC(c3cccs3)=NS(=O)(=O)N2C)cc1 -12.6%
Cc1ccc(NC(=O)CN2C(=O)CCSc3ccc(S(=O)(=O)N4CCCC4)cc32)cc1 -0.839%
CC(C)N(CCCNC(=O)Nc1ccc(C(C)(C)C)cc1)C[C@H]1O[C@@H](n2cc(Br)c3c(N)ncnc32)[C@H](O)[C@H]1O -74.2%
CCc1ccc(-c2nc(CSCC(=O)NCc3ccccc3OC)c(C)o2)cc1 -41.6%
Cc1ccc(-c2nc3c(c(SCC(=O)N4CCCCC4)n2)Cc2cc(C)ccc2O3)cc1 1.64%
CC(C)=CCC[C@@](C)(O)[C@H]1CC=C(C)CC1 -2.52%
CCn1c(CNC(=O)c2ccc(OC)cc2)nnc1SCC(=O)Nc1ccc(OC)cc1 -6.01%
Cn1c(=O)oc2cc(S(=O)(=O)CCC(=O)NCc3ccccc3)ccc21 4.96% [at 11.5 µM, percent change from vehicle, -100% = no light]
CCOc1ccc(N2CC(c3nc(-c4cc(OC)c(OC)c(OC)c4)no3)CC2=O)cc1 (stereo not drawn) -2.91%
CCOc1ccc(N(C)S(=O)(=O)c2ccc3c(c2)C(C)(C)C(=O)N3C)cc1 -7.05%
Cc1ccc(C)c(NC(=O)C2CCCN(S(=O)(=O)c3c(C)noc3/C=C/N(C)C)C2)c1 (stereo not drawn) -25.4%
Cc1ccc(-n2nnc3c(sc4nc(C)c(C)cc43)c2=O)cc1Cl 2.54%
COc1cccc(N2CC(NC(=O)c3ccc(S(=O)(=O)N4CCCC4)cc3)CC2=O)c1 (stereo not drawn) -16.5%
O=C(NC1CCCC1)c1c[nH]c2ccc(S(=O)(=O)Nc3cccc(C(F)(F)F)c3)cc2c1=O -43.9%
CCOC(=O)c1c(C)oc2nc(C)nc(NCC3CCN(Cc4ccc(Cl)cc4)CC3)c12 -12.4%
CCN(c1ccccc1)S(=O)(=O)c1nnc(NC(=O)COc2ccc(OC)cc2)s1 -20.4%
O=C1C(CCC(O)c2ccc(F)cc2)C(c2ccc(O)cc2)N1c1ccc(F)cc1 (stereo not drawn) -20.6%
COCCNC(=O)C1CCN(S(=O)(=O)c2ccc3c(c2)CCCN3C(C)=O)CC1 -5.31%
CCOC(=O)c1[nH]c(C)c(CCC(=O)N2CCN(c3ccccc3)CC2)c1C -11.9%
COc1ccc(-c2nc3n(n2)C(c2ccc(OC)cc2)C(C(=O)Nc2cccnc2)=C(C)N3)cc1 (stereo not drawn) -21%
Clc1cccc(CNc2ncnc3c2nc2n3CCCC2)c1 -7.78%
COc1ccc(-n2ncc3c(N4CCN(c5cccc(C)c5)C(C)C4)ncnc32)cc1 (stereo not drawn) -94%
CCOc1ccc(Cn2c(=O)oc3ccccc32)cc1 -6.58%
Cc1ccc(-c2noc(COc3ccc(Br)c(C)c3)n2)cc1 -14.6%
O=C1C(=O)c2ccccc2C(O)=C1C1CCC(c2ccc(Cl)cc2)CC1 (stereo not drawn) -2.73%
COc1ccc(Cl)cc1NC(=O)CCc1nc(-c2ccccc2F)no1 -27.3%
Cn1cc(C2=C(c3c4n(c5ccccc35)CCC(CN)C4)C(=O)NC2=O)c2ccccc21 (stereo not drawn) 24.1%
O=C(Cn1c(=O)n(Cc2ccc3c(c2)OCO3)c(=O)c2ccccc21)Nc1cccc(Cl)c1 -26.8%
Cc1c(C(=O)N2CCCC2)oc2c1-c1nn(CC(=O)NCc3cccc(Br)c3)cc1CC2 -21.6%
NS(=O)(=O)c1ccc(NC(=O)CCn2c(=O)oc3ccccc32)cc1 -9.24%
COc1ccc(NC(=O)N2CCc3c(sc4c3CCCC4)C2c2ccc(F)cc2)cc1 (stereo not drawn) -22.2%
O=C(CCSCc1ccccc1F)N1CCN(c2ccc(F)cc2)CC1 -2.41%
Cn1cc(C(=O)NCc2ccc(F)cc2)c(=O)c2cc(S(=O)(=O)N3CCCCC3)ccc21 -17.6%
CCOc1ccccc1NC(=O)Cn1c(=O)n(Cc2ccc(C(=O)NCCCOC)cc2)c(=O)c2ccccc21 -6.51%
COc1cc(OC)c(NC(=O)c2oc3ccc4c(c3c2C)C(=O)CC(C)(C)O4)cc1Cl -3.24%
O=C(O)c1cccc(NC(=O)c2cccc(S(=O)(=O)Nc3cccc(C(=O)O)c3)c2)c1 -1.5%
CCn1c(=O)c2cc(C(=O)N(C)c3cc(C)ccc3C)sc2c2ccccc21 -2.37%
CC(C)c1ccc(Nc2nc3ccc(C(=O)c4ccccc4)cc3n3cnnc23)cc1 -36.5%
CCN(C(=O)c1sc2nc3n(c(=O)c2c1C)CCCCC3)c1ccccc1F -5.74%
Cc1ccc(NC(=O)Nc2nnc(N3CCCCC3)s2)c(C)c1 -12.1%
CCc1ccc(CNC(=O)c2cc3c(=O)oc4ccc(C)cc4c3s2)cc1 -4.69%
COc1ccc(NC(=O)c2ccc3snnc3c2)cc1OC -0.892%
CN(C)C(=O)c1ccc(S(=O)(=O)NCc2ccccc2Cl)s1 -2.64%
COc1cc(OC)cc(-n2c(=O)[nH]c3cc(C(=O)NCCc4ccc(C)cc4)ccc3c2=O)c1 19.6%
CC1=C(c2ccc(C)c(C)c2)S(=O)(=O)N=C1N1CCN(c2cccc(C(F)(F)F)c2)CC1 -6.19%
Cc1ccc(NC(=O)Cn2c(=O)n(-c3ccc(CC(=O)NCC4CCCO4)cc3)c(=O)c3ccccc32)cc1 (stereo not drawn) -15.5%
COCCCNC(=O)Cn1c(=O)n(CCCC(=O)NCc2ccc(C)cc2)c(=O)c2ccccc21 -3.23%
CCCC(=O)N(c1ccc2oc(-c3ccccc3)c(C(=O)OCC)c2c1)S(=O)(=O)c1ccc(C)cc1 -13.7%
Cc1ccc(/C=C(\C#N)c2nc(-c3cc4c(ccc5ccccc54)oc3=O)cs2)cc1 -21.4%
O=C(NCC(c1ccc2c(c1)OCO2)N1CCOCC1)c1ccc(F)cc1 (stereo not drawn) -13.2%
CCCCN1CC(c2nc3ccccc3n2CCCCOc2c(C)cccc2C)CC1=O (stereo not drawn) -50%
CCOc1ccc(Sc2cc(C(=O)NCCc3ccc(OC)c(OC)c3)c3ccccc3n2)cc1 -35.6%
COc1ccc(-c2nn(-c3ccccc3)cc2C(=O)Nc2ccccc2OC)cc1 -19.5%
